# From the supplement of paper PMC7826260
# Some of the results follow. The data describe in vitro nicking of single-stranded DNA by Rep domains at 3 µM enzyme and 37 °C for 1 h; the strands have 90 letters, of which the middle is given. A value is the log2 ratio of uncut reads to the pool without enzyme; uncut sequences lie near 0, cut ones below; no hit call is given. Because reads are shares of a total, they shift together, so uncut sequences can rise above 0 when many others are cut.
# Tested on: T1, Rep nickase domain of maize striate mosaic virus
# T1 sequence (Rep 1-117, printed without the tag): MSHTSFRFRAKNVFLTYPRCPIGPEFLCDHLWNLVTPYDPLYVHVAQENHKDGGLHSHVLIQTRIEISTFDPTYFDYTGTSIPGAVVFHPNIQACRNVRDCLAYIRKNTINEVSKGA
# Assay: uncleaved DNA left, log2 of reads against the no-enzyme library (log2 ratio); higher = less cleavage (more negative = more Rep cleavage of the k-mer); sequences stand for … in CTCGTCCG…ACCGGAGA
# Method: (§1)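 A pool of 90-nt single-stranded DNAs with seven random bases just before the constant AC of the nick site (name = the seven bases) was cut by 3 µM recombinant His6-SUMO-tagged Rep nickase domain (300 nM DNA, 50 mM HEPES pH 8.0, 50 mM NaCl, 1 mM MnCl2, 1 h, 37 °C, three replicates). Uncut DNA was amplified and sequenced.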
row,Sequence,uncleaved DNA left (log2)
1,TCGAAAC,-0.534
2,TGGAGCC,0.185
3,AGTGAAG,-0.611
4,TGTGGCA,0.741
5,TACTTGA,-0.638
6,TCTTGTG,-0.817
7,ACGCAGT,-0.908
8,GCGCCCG,-0.662
9,GCCTACG,-0.793
10,ACTCCGG,-0.499
11,TACAGGT,1.47
12,GGTGCTA,1.9
13,TACTTAG,-1.32
14,GACGCGC,-0.892
15,CACTGAG,-0.924
16,TTATCAA,1.92
17,AGGCGCG,-0.547
18,CCCAAAT,-0.737
19,CCACTTA,-0.466
20,AACAGCA,-1.12

row,Sequence,uncleaved DNA left (log2)
1,TGGTCAT,2.27
2,TGTACCC,1
3,AATCGGC,-0.691
4,GCATGTT,-0.324
5,TGCGTAC,-0.567
6,TCATTCC,-0.0658
7,TTAGGTG,-0.679
8,CCTACTG,0.765
9,TTATTTT,-1.8
10,CTAACGG,1.67
11,TGGTTAA,0.598
12,TGTACAC,1.32
13,CGAGACT,1.31
14,CCTCTGA,-0.636
15,GTAAGGT,1.6
16,AAAAACC,-0.705
17,CGTCAAG,-0.939
18,GGGGTGG,1.97
19,TGCGACC,-0.496
20,CCCTTCA,-0.14

# Tested on: T2, Rep nickase domain of porcine circovirus 2
# T2 sequence (Rep 2-116, printed without the tag): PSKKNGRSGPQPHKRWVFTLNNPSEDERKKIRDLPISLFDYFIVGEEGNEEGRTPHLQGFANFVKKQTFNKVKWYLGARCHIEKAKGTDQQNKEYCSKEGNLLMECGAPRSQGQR
# Assay: as above
# Method: as §1
row,Sequence,uncleaved DNA left (log2)
1,TCGAAAC,0.0399
2,TGGAGCC,-0.199
3,AGTGAAG,0.25
4,TGTGGCA,0.138
5,TACTTGA,-0.949
6,TCTTGTG,0.202
7,ACGCAGT,0.144
8,GCGCCCG,0.00111
9,GCCTACG,0.0861
10,ACTCCGG,0.086
11,TACAGGT,0.0343
12,GGTGCTA,0.21
13,TACTTAG,0.0473
14,GACGCGC,0.0366
15,CACTGAG,0.128
16,TTATCAA,0.0448
17,AGGCGCG,0.3
18,CCCAAAT,-0.166
19,CCACTTA,-0.00109
20,AACAGCA,-0.264

row,Sequence,uncleaved DNA left (log2)
1,TGGTCAT,0.189
2,TGTACCC,-0.361
3,AATCGGC,0.215
4,GCATGTT,-2.66
5,TGCGTAC,0.0674
6,TCATTCC,0.0593
7,TTAGGTG,0.222
8,CCTACTG,-0.0185
9,TTATTTT,-3.29
10,CTAACGG,0.193
11,TGGTTAA,-0.217
12,TGTACAC,0.0879
13,CGAGACT,-0.00444
14,CCTCTGA,-0.0367
15,GTAAGGT,0.12
16,AAAAACC,-0.31
17,CGTCAAG,0.167
18,GGGGTGG,0.18
19,TGCGACC,0.0242
20,CCCTTCA,-0.116

# Tested on: T3, Rep nickase domain of tomato golden mosaic virus
# T3 sequence (Rep 1-124, printed without the tag): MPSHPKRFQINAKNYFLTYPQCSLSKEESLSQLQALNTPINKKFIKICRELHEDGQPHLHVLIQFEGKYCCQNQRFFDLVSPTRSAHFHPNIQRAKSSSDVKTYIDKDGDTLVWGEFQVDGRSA
# Assay: as above
# Method: as §1
row,Sequence,uncleaved DNA left (log2)
1,TCGAAAC,-0.00944
2,TGGAGCC,-0.195
3,AGTGAAG,0.167
4,TGTGGCA,0.112
5,TACTTGA,-0.0333
6,TCTTGTG,-0.0174
7,ACGCAGT,0.105
8,GCGCCCG,-0.0554
9,GCCTACG,-0.0166
10,ACTCCGG,0.108
11,TACAGGT,0.0285
12,GGTGCTA,0.125
13,TACTTAG,-0.0624
14,GACGCGC,-0.0988
15,CACTGAG,0.0398
16,TTATCAA,0.0951
17,AGGCGCG,0.13
18,CCCAAAT,0.0954
19,CCACTTA,0.11
20,AACAGCA,-0.0552

row,Sequence,uncleaved DNA left (log2)
1,TGGTCAT,-0.0397
2,TGTACCC,-0.0348
3,AATCGGC,0.071
4,GCATGTT,-0.146
5,TGCGTAC,-0.062
6,TCATTCC,-0.0658
7,TTAGGTG,0.112
8,CCTACTG,-0.285
9,TTATTTT,-2.87
10,CTAACGG,0.18
11,TGGTTAA,-0.0362
12,TGTACAC,0.0545
13,CGAGACT,-0.0406
14,CCTCTGA,-0.217
15,GTAAGGT,0.0563
16,AAAAACC,-0.00106
17,CGTCAAG,-0.0185
18,GGGGTGG,0.0721
19,TGCGACC,0.0339
20,CCCTTCA,0.00402

# Tested on: T4, Rep nickase domain of tomato yellow leaf curl virus
# T4 sequence (Rep 1-136, printed without the tag): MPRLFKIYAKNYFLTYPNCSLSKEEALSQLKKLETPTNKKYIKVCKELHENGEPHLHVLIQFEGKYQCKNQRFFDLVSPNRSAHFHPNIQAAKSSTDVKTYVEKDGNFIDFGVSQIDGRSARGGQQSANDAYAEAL
# Assay: as above
# Method: as §1
row,Sequence,uncleaved DNA left (log2)
1,TCGAAAC,0.0824
2,TGGAGCC,-0.0646
3,AGTGAAG,0.123
4,TGTGGCA,0.121
5,TACTTGA,0.099
6,TCTTGTG,0.0528
7,ACGCAGT,0.151
8,GCGCCCG,-0.0439
9,GCCTACG,-0.084
10,ACTCCGG,-0.0847
11,TACAGGT,-0.0717
12,GGTGCTA,0.136
13,TACTTAG,-0.0175
14,GACGCGC,-0.0823
15,CACTGAG,0.164
16,TTATCAA,0.133
17,AGGCGCG,0.13
18,CCCAAAT,0.082
19,CCACTTA,0.0589
20,AACAGCA,0.00874

row,Sequence,uncleaved DNA left (log2)
1,TGGTCAT,0.0275
2,TGTACCC,0.147
3,AATCGGC,0.00361
4,GCATGTT,0.0429
5,TGCGTAC,-0.00555
6,TCATTCC,-0.0201
7,TTAGGTG,-0.0565
8,CCTACTG,-0.229
9,TTATTTT,-0.0236
10,CTAACGG,-0.0302
11,TGGTTAA,-0.0221
12,TGTACAC,0.0254
13,CGAGACT,-0.00856
14,CCTCTGA,-0.0835
15,GTAAGGT,0.0356
16,AAAAACC,0.00303
17,CGTCAAG,-0.177
18,GGGGTGG,0.0158
19,TGCGACC,0.0181
20,CCCTTCA,0.038

# Tested on: T5, Rep nickase domain of wheat dwarf virus
# T5 sequence (Rep 1-137, printed without the tag): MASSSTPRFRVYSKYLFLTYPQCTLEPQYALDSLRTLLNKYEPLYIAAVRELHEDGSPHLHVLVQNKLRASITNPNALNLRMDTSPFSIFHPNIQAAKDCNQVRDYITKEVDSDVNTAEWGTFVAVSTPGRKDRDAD
# Assay: as above
# Method: as §1
row,Sequence,uncleaved DNA left (log2)
1,TCGAAAC,-0.0432
2,TGGAGCC,0.0144
3,AGTGAAG,0.034
4,TGTGGCA,0.0729
5,TACTTGA,0.0282
6,TCTTGTG,-0.0257
7,ACGCAGT,-0.0965
8,GCGCCCG,-0.126
9,GCCTACG,-0.172
10,ACTCCGG,-0.0441
11,TACAGGT,-0.0152
12,GGTGCTA,0.15
13,TACTTAG,-0.121
14,GACGCGC,-0.317
15,CACTGAG,0.0724
16,TTATCAA,0.237
17,AGGCGCG,0.0403
18,CCCAAAT,-0.041
19,CCACTTA,0.102
20,AACAGCA,-0.0873

row,Sequence,uncleaved DNA left (log2)
1,TGGTCAT,0.131
2,TGTACCC,0.202
3,AATCGGC,0.139
4,GCATGTT,-0.355
5,TGCGTAC,-0.125
6,TCATTCC,-0.0142
7,TTAGGTG,-0.0777
8,CCTACTG,-0.0288
9,TTATTTT,-2.96
10,CTAACGG,0.0415
11,TGGTTAA,-0.0623
12,TGTACAC,0.101
13,CGAGACT,-0.0227
14,CCTCTGA,-0.086
15,GTAAGGT,-0.0457
16,AAAAACC,0.00993
17,CGTCAAG,-0.126
18,GGGGTGG,0.0411
19,TGCGACC,0.0317
20,CCCTTCA,-0.00495
